Measured values from the supplement of paper PMC11880418.
Counter-ions that a name gives are not always drawn. The list shows a part of the results. The data scatter; read single values as rough.
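Further: High-content imaging of ALDEFLUOR-stained cells with Hoechst-labelled nuclei in 384-well plates, triplicate wells, scored as Z-score against 0.1% DMSO vehicle, negative meaning fewer ALDHbr cells.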

These molecules were tested on SUM159 (assay: ALDHbr (CSC) cell proportion score relative to DMSO vehicle (ratio to DMSO); breast (SUM159) / gastric (MKN45) / pancreatic (PANC1) / colon cancer lines; ALDHbr cells have high ALDH activity and are rich in cancer stem cells (CSC); higher = more CSC (ALDHbr) cells remaining). Settings: 10 µM; 72 h.
With Cc1cccc(C)c1NC1=NCCCS1 [Xylazine] the ALDHbr was 0.995. Molecule C[N+]1([O-])[C@@H]2C[C@@H](OC(=O)[C@H](CO)c3ccccc3)C[C@H]1[C@@H]1O[C@@H]12 (stereo not given in full) [Scopolamin-N-oxide hydrobromide] has an ALDHbr of 1.16. In the case of C[C@]12CCC(=O)C=C1CC[C@@H]1[C@@H]2C(=O)C[C@]2(C)C(=O)CC[C@@H]12 [Adrenosterone], the ALDHbr is reported as 0.9. For CN1[C@@H]2CC[C@H]1C[C@@H](OC(=O)C(CO)c1ccccc1)C2 (stereo not given in full) [Atropine sulfate monohydrate], the ALDHbr was 1.04. Molecule C#C[C@]1(O)CC[C@H]2[C@@H]3CCC4=CC(=O)CC[C@]4(C)[C@H]3CC[C@@]21C [Ethisterone] has an ALDHbr of 0.963. In the case of O=C1CC[C@@]2(O)[C@H]3Cc4ccc(O)c5c4[C@@]2(CCN3CC2CC2)[C@H]1O5 [Naltrexone hydrochloride dihydrate], the ALDHbr is reported as 1.11. CCC(COC(=O)c1cc(OC)c(OC)c(OC)c1)(c1ccccc1)N(C)C (stereo not given) [Trimebutine] was tested, and the ALDHbr was 0.684. CCC1(CC)C(=O)C=CNC1=O [Pyrithyldione] was tested, and the ALDHbr was 1.03. With C=C1CC[C@@]2(O)[C@H]3Cc4ccc(O)c5c4[C@@]2(CCN3CC2CC2)[C@H]1O5 [Nalmefene hydrochloride] the ALDHbr was 1.02. In the case of CN1[C@@H]2C[C@@H](OC(=O)[C@H](CO)c3ccccc3)C[C@H]1[C@@H]1O[C@@H]12 [Scopolamine hydrochloride], the ALDHbr is reported as 1.09. Clc1ccc(C(OCCN2CCCCC2)c2ccccc2)cc1 (stereo not given) [Cloperastine hydrochloride] was tested, and the ALDHbr was 0.88. C=CCN1CC[C@]23c4c5ccc(O)c4O[C@H]2C(=O)CC[C@@]3(O)[C@H]1C5 [Naloxone hydrochloride] gave an ALDHbr of 0.979. COC[C@@H](NC(C)=O)C(=O)NCc1ccccc1 [Lacosamide] was tested, and the ALDHbr was 0.98. CC(NC(C)(C)C)C(=O)c1cccc(Cl)c1 (stereo not given) [Bupropion hydrochloride] showed an ALDHbr of 1.03. Work on C[C@]12Cc3c[nH]nc3C[C@@H]1CC[C@@H]1[C@@H]2CC[C@@]2(C)[C@H]1CC[C@]2(C)O [Stanozolol] yielded an ALDHbr of 1.23. C[C@]12CC[C@@H](O)C[C@H]1CC[C@@H]1[C@@H]2CC[C@]2(C)C(=O)CC[C@@H]12 [3-alpha-Hydroxy-5-beta-androstan-17-one] showed an ALDHbr of 1.14. For C[N+]12CCC(CC1)C(OC(=O)C(O)(c1ccccc1)c1ccccc1)C2 (stereo not given) [Clidinium bromide], the ALDHbr was 1.06. With CCCN1C[C@H](CSC)C[C@@H]2c3cccc4[nH]cc(c34)C[C@H]21 [Pergolide mesylate] the ALDHbr was 0.874. In the case of CN1C(=O)CCS(=O)(=O)C1c1ccc(Cl)cc1 (stereo not given) [Chlormezanone], the ALDHbr is reported as 1.22. O=[N+]([O-])O[C@@H]1CO[C@H]2[C@@H]1OC[C@@H]2O [Isosorbide mononitrate] gave an ALDHbr of 0.829. With CC[N+]1(C)CCCC(OC(=O)C(O)(c2ccccc2)c2ccccc2)C1 (stereo not given) [Pipenzolate bromide] the ALDHbr was 0.979.

Each molecule was assayed on T84 in the same assay as above. Settings: 10 µM; 72 h.
CC(C)c1cccc(C(C)C)c1O [Propofol] showed an ALDHbr of 0.93. For C[N+](C)(C)CCCCCCCCCC[N+](C)(C)C [Decamethonium bromide], the ALDHbr was 1.11. O=c1[nH]c2ccccc2n1CCCN1CCC(n2c(=O)[nH]c3cc(Cl)ccc32)CC1 [Domperidone] gave an ALDHbr of 0.883. Molecule OC(c1ccccc1)(c1ccccc1)C1CCNCC1 [Azacyclonol] has an ALDHbr of 1.03. In the case of NC(=O)CN1CCCC1=O [Piracetam], the ALDHbr is reported as 0.825. Molecule C[N+]1(C)CCOC(O)(c2ccc(-c3ccc(C4(O)C[N+](C)(C)CCO4)cc3)cc2)C1 (stereo not given) [Hemicholinium bromide] has an ALDHbr of 0.974. With CC(=O)NC1CCSC1=O (racemic) [N-Acetyl-DL-homocysteine Thiolactone] the ALDHbr was 0.995. CC(=O)OCC(=O)[C@H]1CC[C@H]2[C@@H]3CC[C@H]4C[C@H](O)CC[C@]4(C)[C@H]3C(=O)C[C@]12C [Alfadolone acetate] gave an ALDHbr of 0.953. In the case of CC(C)N(CCC(C(N)=O)(c1ccccc1)c1ccccn1)C(C)C (stereo not given) [Disopyramide], the ALDHbr is reported as 0.971. Work on CNC(=O)Oc1ccc2c(c1)[C@]1(C)CCN(C)[C@@H]1N2C [Eserine hemisulfate salt] yielded an ALDHbr of 0.993. Oc1ccc2c3c1O[C@H]1[C@@H](O)CC[C@@]4(O)[C@@H](C2)N(CC2CCC2)CC[C@]314 [Nalbuphine hydrochloride] was tested, and the ALDHbr was 0.919. For CC[C@@H](CO)NC(=O)[C@@H]1C=C2c3cccc4[nH]cc(c34)C[C@H]2N(C)C1 [Methylergometrine maleate], the ALDHbr was 0.784. In the case of CO[C@]12C[C@@H](COC(=O)c3cncc(Br)c3)CN(C)[C@@H]1Cc1cn(C)c3cccc2c13 [Nicergoline], the ALDHbr is reported as 1.06. Cc1cccc(C)c1NC1=NCCCS1 [Xylazine] was tested, and the ALDHbr was 1.16. For C[N+]1([O-])[C@@H]2C[C@@H](OC(=O)[C@H](CO)c3ccccc3)C[C@H]1[C@@H]1O[C@@H]12 (stereo not given in full) [Scopolamin-N-oxide hydrobromide], the ALDHbr was 1.06. In the case of C[C@]12CCC(=O)C=C1CC[C@@H]1[C@@H]2C(=O)C[C@]2(C)C(=O)CC[C@@H]12 [Adrenosterone], the ALDHbr is reported as 0.891. In the case of CN1[C@@H]2CC[C@H]1C[C@@H](OC(=O)C(CO)c1ccccc1)C2 (stereo not given in full) [Atropine sulfate monohydrate], the ALDHbr is reported as 1.15. Work on C#C[C@]1(O)CC[C@H]2[C@@H]3CCC4=CC(=O)CC[C@]4(C)[C@H]3CC[C@@]21C [Ethisterone] yielded an ALDHbr of 0.853. For O=C1CC[C@@]2(O)[C@H]3Cc4ccc(O)c5c4[C@@]2(CCN3CC2CC2)[C@H]1O5 [Naltrexone hydrochloride dihydrate], the ALDHbr was 0.981. Molecule CCC(COC(=O)c1cc(OC)c(OC)c(OC)c1)(c1ccccc1)N(C)C (stereo not given) [Trimebutine] has an ALDHbr of 1. Molecule CCC1(CC)C(=O)C=CNC1=O [Pyrithyldione] has an ALDHbr of 1.19. In the case of C=C1CC[C@@]2(O)[C@H]3Cc4ccc(O)c5c4[C@@]2(CCN3CC2CC2)[C@H]1O5 [Nalmefene hydrochloride], the ALDHbr is reported as 1.05. CN1[C@@H]2C[C@@H](OC(=O)[C@H](CO)c3ccccc3)C[C@H]1[C@@H]1O[C@@H]12 [Scopolamine hydrochloride] gave an ALDHbr of 1.05. Clc1ccc(C(OCCN2CCCCC2)c2ccccc2)cc1 (stereo not given) [Cloperastine hydrochloride] was tested, and the ALDHbr was 0.6. For C=CCN1CC[C@]23c4c5ccc(O)c4O[C@H]2C(=O)CC[C@@]3(O)[C@H]1C5 [Naloxone hydrochloride], the ALDHbr was 0.964. In the case of COC[C@@H](NC(C)=O)C(=O)NCc1ccccc1 [Lacosamide], the ALDHbr is reported as 0.886. In the case of CC(NC(C)(C)C)C(=O)c1cccc(Cl)c1 (stereo not given) [Bupropion hydrochloride], the ALDHbr is reported as 0.947. C[C@]12Cc3c[nH]nc3C[C@@H]1CC[C@@H]1[C@@H]2CC[C@@]2(C)[C@H]1CC[C@]2(C)O [Stanozolol] gave an ALDHbr of 0.818. C[C@]12CC[C@@H](O)C[C@H]1CC[C@@H]1[C@@H]2CC[C@]2(C)C(=O)CC[C@@H]12 [3-alpha-Hydroxy-5-beta-androstan-17-one] gave an ALDHbr of 0.927. C[N+]12CCC(CC1)C(OC(=O)C(O)(c1ccccc1)c1ccccc1)C2 (stereo not given) [Clidinium bromide] gave an ALDHbr of 0.954. CCCN1C[C@H](CSC)C[C@@H]2c3cccc4[nH]cc(c34)C[C@H]21 [Pergolide mesylate] showed an ALDHbr of 0.812. CN1C(=O)CCS(=O)(=O)C1c1ccc(Cl)cc1 (stereo not given) [Chlormezanone] was tested, and the ALDHbr was 0.934. With O=[N+]([O-])O[C@@H]1CO[C@H]2[C@@H]1OC[C@@H]2O [Isosorbide mononitrate] the ALDHbr was 1.01. CC[N+]1(C)CCCC(OC(=O)C(O)(c2ccccc2)c2ccccc2)C1 (stereo not given) [Pipenzolate bromide] gave an ALDHbr of 0.931.
